The source of these data is the RNAGym collection of RNA variant scans (doi:10.1093/nar/gkz1192).

B1: CPEB3 Ribozyme (parent)
chain: UAACAGGGGGCCACAGCAGAAGCGUUCACGUCGCAGCCCCUGUCAGAUUCUGGUGAAUCUGCGAAUUCUGCUGUAUAUCUC

The source gives no read counts; variants with many changes may rest on few reads.

The variants in this data set derive from B1. The experiment in a line: self-cleavage, relative activity (ratio to wild type); higher = more cleavage; in vitro, sequencing. A digest of the protocol: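 Barcoded CPEB3 ribozyme mutants, produced by rounds of error-prone PCR, self-cleaved while being transcribed with T7 RNA polymerase for 5 hours at 37°C and during a subsequent 15 min DNase I step before EDTA was added. Sequencing of template-switched cDNA on Illumina gave cleaved and total reads, and DNA sequencing assigned barcodes to variants. Each variant's relative activity is its cleaved/total read fraction divided by the unmutated ribozyme's fraction, averaged across three batches. A variant needed a minimum of 5 reads.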
In the case of UAACAGGGGGCCACAGCGGAAGCGUUCACGUCGCAGCCCCUGUCAGAUUCUGGUGAAUCUGCAAAUUCUGCUGUGUGUCUC [A18G G63A A75G A77G], the self-cleavage turned out to be 0.24. In the case of UAACAGGGGGCCACAGCGGAAACGUUAACGUCGCAGCCCCUGUCAGAUUCUGGUGAAUCAGCGAAUUCUGCUGUAUAUCUC [A18G G22A C27A U60A], the self-cleavage stood at 0.06. Regarding UAACAGGGGGCCACAGCGGAAGCGUUCACGUCGCAGCCCCUGUCAGAUUCUGGUAAAUCUGCGAACUCUGCAGUAUAUCUC [A18G G55A U66C U72A], the self-cleavage amounted to 0.17. With UAACAGGGGGCCACAGCGGAAGCAUUCACGUCGCAGCCCCUGUCAGAUUCUGGUGAAUCUGCGAAUUCCGCAGUAUAUCUC [A18G G24A U69C U72A], the self-cleavage worked out at 0.12.

For the variant UAACAGGGGGCCACAGCGGAAGCGUUCACGUCCCAGCCCCUGUCCGACUCUGGAGAAUCUGCGAGUUCUGCUGUAUAUCUC [A18G G33C A45C U48C U54A A65G], the self-cleavage was 0.06. With UAACAGGGGGCCACAGCGGAAGCGUUCACAUCGCAGCCCCUGACAGAUUCUGGUGAAUCUGCGAAUUCUGCUGUAUAUCUC [A18G G30A U43A], the self-cleavage was found to be 0.11. Under UAACAGGGGGCCACAGCGGAAGCGUUCACAUCGCAGCCCCCGCCAGAUUCUGGUGAGUCUGCGAAUUCGGCUGUAUAUCUC [A18G G30A U41C U43C A57G U69G] stands 0.18; under UAACAGGGGGCCACAGCGGAAACGUUCACGUCGCAGCCCCUGUCAGAUUCAGGUGAACCCGCGAAUCCUGCUGUAUAUCUC [A18G G22A U51A U58C U60C U67C], 0.04. For the variant UAACAGGGGGCCACAGCGGAAACGUACACGUCGCAGCCCCGGUCAGAUUCUGGUGAAUCUGCGAAUUCUGCUGUAUAUCUC [A18G G22A U26A U41G], the self-cleavage came out at 0.28. As for UAACAGGGGGCCACAGCGGAAGCGUUCACGUCGCAGCCCCUGUCAGAUUCUGGUAAAUCUGCAAAUUCUGCUGUAUAUCUC [A18G G55A G63A], the self-cleavage stood at 0.33. UAACAGGGGGCCACAGCGGAAGCGUUCACGUCGCAGCCCCUGUCAGAUUCUUGUGAAUCUGCGAAUUCUGCUGUACAUCUC [A18G G52U U76C]: the self-cleavage is 0.99. Take UAACAGGGGGCCACAGCGUAAGCGUUCACGUCGCAGCCCCUGUCAGAUUCUGGUGAAUCUGCGAAUUCCGCAGUAUACCUC [A18G G19U U69C U72A U78C]: the self-cleavage stood at 0.11. Under UAACAGGGGGCCACAGCGGAAGCGUUCACGUCGCAGCCCCUGUCAGAUUCUGGUAAAUCUGCGAAUUCUGCUGAAUAUCUC [A18G G55A U74A] stands 1.13; under UAACAGGGGGCCACAGCGGAAACGUUCACGUCGCAACCCCUGUCAGAUUCUGGUGAAUCUGCGAAUUCUGCUGUAUGUCUC [A18G G22A G36A A77G], 0.14. Take UAACAGGGGGCCACAGCGGAAGCAUUCACGUCGCAGCCCCUGUCAGAUUCUGGUGUAUCUGCGAGUUCUGCUGUAUAUCUC [A18G G24A A56U A65G]: the self-cleavage was determined as 0.32. As to UAACAGGGGGCCACAGCGGAAGCAUUCGCGACGCAGCCCCUGUCAGAUUCUGGUGAAUCUGCGAACUCUGCUGUAUAUCUC [A18G G24A A28G U31A U66C], the self-cleavage came to 0.21. Turning to UAACAGGGGGCCACAGCGGAAGCGUUCACGUCACAGCCCCUGUCAGAUUCUGGUGAAUCUGCGAAAUCUGCUGUAUAUCUC [A18G G33A U66A], the self-cleavage worked out at 0.03. On to UAACAGGGGGCCACAGCGGAAACGUUCACGUCGCAGCCCCGGUCAGAUUCUGGUGAAUCUGCGAAUUCUGCUGUAUAUCUC [A18G G22A U41G], for which the self-cleavage worked out at 0.44.

For UAACAGGGGGCCACAGCGGAAGCAUUCACGUCGCAGCCCCUGUCAGAUUCAGGUGAAUCUGCGAAUUCUGCUGUAUAUCAC [A18G G24A U51A U80A], the self-cleavage is 0.04.

Turning to UAACAGGGGGCCACAGCGGAAUCGUUCACGUCGCAGCCCCUGUCAGACUCUGGUGAAUCUGCGAGUUCUGCCGUAUAUCUC [A18G G22U U48C A65G U72C], the self-cleavage turned out to be 0.14. To UAACAGGGGGCCACAGCGGAAGCGUUCACGUCGCAACCCCUGUCGGAUUCUGGUGAAUCUGCGAAUUCUGCUGUACAUCUC [A18G G36A A45G U76C] belongs 0.1; to UAACAGGGGGCCACAGCGGAAGCAUUCACGUCGCGGCCCCUGUCAGAUUCUGGUGAAUCUGCGAAUUCUGCCGUAUAUCUC [A18G G24A A35G U72C], 0.05; to UAACAGGGGGCCACAGCGGAAGCGUUCACAUCGCAGCCCCUGUCAGAUCCUGGUGAAUCUGCGAGUUCAGCUGUAUAUCUC [A18G G30A U49C A65G U69A], 0.32. Turning to UAACAGGGGGCCACAGCGGAAGCGUUCACGUCGCAGCCCCUGUCAGAUUCUGGUGAAUCUGCUAAUCCUGCUGUAUAUCUC [A18G G63U U67C], the self-cleavage turned out to be 0.27. Regarding UAACAGGGGGCCACAGCGGAAGCCUUGACGUCGCAGCCCCUGUCAGAUUCUGGUGAAUCUGCGAAUUCUGCUGUAUAUCUC [A18G G24C C27G], the self-cleavage was 0.3. UAACAGGGGGCCACAGCGGAAGCGAUCUCGUCGCAGCCCCUGUCAGAUUCUGGUGAAUCCGCGAAUUCUGCGGUGUAUCUC [A18G U25A A28U U60C U72G A75G]: the self-cleavage worked out at 0.1. As for UAACAGGGGGCCACAGCGGAAGCGUUCACGUCGCAGCCCCUGUCAGAUUCUUGUGAAUCUGCGGAUACUGCUGUAUAUCAC [A18G G52U A64G U67A U80A], the self-cleavage is 0.09. As for UAACAGGGGGCCACAGCGGAAGCGUUCACGUCGCAGCCCCUGUCAGAUUCUGGUGAAUCUACGAUUUCUGUUGUAUAUCUC [A18G G61A A65U C71U], the self-cleavage was determined as 0.31. On to UAACAGGGGGCCACAGCGGAAGCGUUCACGUCGCAACCCCUGUCAGAUUCUGGUGAAUCAGCGAAUUCUGCUGUAUAUCUC [A18G G36A U60A], for which the self-cleavage amounted to 0.03.

As for UAACAGGGGGCCACAGCGGAAGCGUUCACAUCGCAGCCCCUGUCAGAUUCUGGUGAACCUGCGAAUUCUGCCGUAUAUCUC [A18G G30A U58C U72C], the self-cleavage worked out at 0.13. For UAACAGGGGGCCACAGCGGAAGCGUUCACAUCGCAGCCCCUGUCAGAUUCUGGUGGAUCUGCGAAUUCUGCUGUAUGUCUC [A18G G30A A56G A77G], the self-cleavage is 0.13.

In the case of UAACAGGGGGCCACAGCGGAAGCGUUCACGUCGCAUCCCCUGUCAGAUUCUGGUGGAUCUGCGUAUUCUGCUGUAUAUCUC [A18G G36U A56G A64U], the self-cleavage is 0.1.

UAACAGGGGGCCACAGCGGAAGCAUUCGCGUCGCAGCCCCUGUCAGAUUCUGGUGAAUCUGCGAAUUCUGCAGUAUAUCUC [A18G G24A A28G U72A]: the self-cleavage amounted to 0. As for UAACAGGGGGCCACAGCGGAAGCGUUCACGUCGCAACCCCUGCCAGAUUCUGGUGAGCCUGCGAAUUCUGCUGAAAAUCUC [A18G G36A U43C A57G U58C U74A U76A], the self-cleavage was 0.04.
